Reference: PubChem BioAssay AID1768 (National Center for Advancing Translational Sciences (NCATS), 2009)
About 620 (0.23%) of roughly 270,000 compounds were called active. Inconclusive results, whose numbers are uncertain, are shown with a selection of clear calls. The call rests on the fitted dose curve; in most records, active means well fitted inhibition curve with a large enough effect in the polarisation, with a control signal flat (not every such curve was filed as active); inconclusive means small, poorly fitted or top-dose-only effect, or effect the other way, or a change in a side signal; inactive means no such curve, though single readings can be large or run the other way; the % refers to the polarisation. A potency beside an inconclusive call is a rough fit, not a confirmed value. A note “side channel” means that the fit belongs to a control or component signal, not to the main read-out.

target: Menin (Homo sapiens) (UniProt O00255); experiment: qHTS Assay for Inhibitors Targeting the Menin-MLL Interaction in MLL Related Leukemias: Competition With Texas Red Labeled MLL-derived Mutant Peptide; details: fluorescence polarization; series mostly up to 61.6 µM
Chain of UniProt O00255 (O00255 whole entry, looked up): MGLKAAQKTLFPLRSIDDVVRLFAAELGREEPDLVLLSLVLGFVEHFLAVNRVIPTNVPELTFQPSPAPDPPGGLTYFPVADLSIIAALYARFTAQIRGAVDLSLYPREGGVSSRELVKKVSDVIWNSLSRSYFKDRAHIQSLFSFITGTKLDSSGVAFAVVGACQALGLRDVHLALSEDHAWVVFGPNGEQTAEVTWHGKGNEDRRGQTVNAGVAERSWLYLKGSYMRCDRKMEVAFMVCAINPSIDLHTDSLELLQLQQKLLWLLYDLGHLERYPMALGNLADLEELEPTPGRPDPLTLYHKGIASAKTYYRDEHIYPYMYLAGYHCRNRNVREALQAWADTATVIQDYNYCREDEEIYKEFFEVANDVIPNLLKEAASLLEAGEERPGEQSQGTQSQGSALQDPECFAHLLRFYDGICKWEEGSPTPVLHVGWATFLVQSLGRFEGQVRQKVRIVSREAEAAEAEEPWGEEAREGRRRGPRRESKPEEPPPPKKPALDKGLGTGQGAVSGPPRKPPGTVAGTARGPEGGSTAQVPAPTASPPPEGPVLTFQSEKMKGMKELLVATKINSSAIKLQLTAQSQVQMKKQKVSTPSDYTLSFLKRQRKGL
Potency means the concentration at half of the fitted maximal effect; tags describe the fitted curve by direction and shape or compound fluorescence and quenching.

Potency, inconclusive:
CCn1cc(/C=C/c2cc[n+](C)cc2)c2ccccc21 3.98 µM [inhibitor, partial curve]
O=C(Nc1ccc(N2CCCCC2)c(Cl)c1)c1ccc(N2CCOCC2)c([N+](=O)[O-])c1 1.58 µM [quencher, side channel, full curve]
CC1CCCCN1S(=O)(=O)c1ccc(C(=O)Nc2nnc(-c3ccco3)o2)cc1 (configuration not stated) 17.8 µM [quencher, side channel, partial curve]
O=c1c(-c2ccc(F)cc2)nc2cnc(Oc3ccccc3)nc2n1C1CC1 28.2 µM [fluorescent, side channel, partial curve]
O=C(N/N=C/c1c[nH]c2ccccc12)c1cc(Br)ccc1O 35.5 µM [quencher, side channel, single point]
O=[N+]([O-])c1ccc(Sc2cccc3cccnc23)c([N+](=O)[O-])c1 20 µM [quencher, side channel, partial curve]
O=C(Nc1cccc2cccnc12)c1cc(F)c(F)cc1Cl 39.8 µM [inhibitor, single point]
O=C(Cc1ccc([N+](=O)[O-])cc1)Nc1ccc(Cl)cc1 20 µM [quencher, side channel, partial curve]
NS(=O)(=O)c1cccc(NC(=O)COC(=O)c2cc(-c3ccc(Cl)cc3)nc3ccccc23)c1 1.78 µM [quencher, side channel, full curve]
O=C(O)CCc1[nH]c2ccccc2c1Sc1ccccc1 39.8 µM [quencher, side channel, single point]
COc1ccc(C(=O)c2sc(Nc3ccccc3)nc2N)cc1OC 14.1 µM [quencher, side channel, partial curve]
CN(C)S(=O)(=O)c1ccc(Cl)c(C(=O)Nc2cccc3ncccc23)c1 14.1 µM [inhibitor, single point]
CC(C)NC(=S)N/N=C/c1cc(Br)ccc1O 22.4 µM [quencher, side channel, single point]
CC(=NCCCNC1CCCCC1)C1=C(O)CC(C)(C)CC1=O 10 µM [inhibitor, full curve]
CC(C)(CO)Nc1nc(N2CCCC2)nc(N2CCCC2)n1 3.98 µM [fluorescent, side channel, full curve]
COc1ccccc1N1CCN(C(=O)c2cc(=O)c3cc(C)cc(C)c3o2)CC1 14.1 µM [fluorescent, side channel, partial curve]
Cc1ccc(NC(=O)c2sccc2C)cc1[N+](=O)[O-] 17.8 µM [quencher, side channel, partial curve]
CCN1CCN(c2ncnc3c2c(-c2ccccc2)cn3-c2ccc(F)cc2)CC1 2.24 µM [fluorescent, side channel, full curve, poor fit]
Cc1ccc(Cn2c(=N)n(CC(=O)c3ccccc3)c3ccccc32)cc1 2.82 µM [fluorescent, side channel, full curve, poor fit]
COC(=O)c1ccc(Nc2cc(C)nc(-c3ccccc3O)n2)cc1 11.2 µM [quencher, side channel, partial curve]
COc1ccc(NC(=O)c2cc3c(s2)CCC3)cc1S(=O)(=O)N1CCOCC1 31.6 µM [quencher, side channel, partial curve]
CCNC(=S)N(CCc1ccc(S(N)(=O)=O)cc1)C1CC(=O)N(c2ccccc2)C1=O (configuration not stated) 35.5 µM [quencher, side channel, partial curve]
CCCNC(=O)COc1ccc2c(=O)c(Oc3ccccc3F)coc2c1 2.51 µM [inhibitor, partial curve]
Cc1ccc(C(C)C)c(OCC(=O)Nc2ccccc2N2CCN(C)CC2)c1 7.94 µM [fluorescent, side channel, partial curve]
COc1cccc(C2c3[nH]c4ccccc4c3C[C@H]3C(=O)N(c4ccccc4C(=O)NCCCN4CCOCC4)C(=O)N23)c1 (some centres not stated) 44.7 µM [inhibitor, single point]
Cc1cc(C(F)(F)F)n2[nH]c(=O)c(N=Nc3ccccc3)c2n1 14.1 µM [quencher, side channel, partial curve]
CCOc1ccc(CN(C)CC(=O)NCc2ccc(F)cc2)cc1 28.2 µM [inhibitor, single point]
COc1ccc(/C=C/C(=O)Nc2ccc3c(c2)CCC3)cc1OC 31.6 µM [quencher, side channel, single point]
CN(C)C(=O)c1cc([N+](=O)[O-])cc([N+](=O)[O-])c1N(C)C 3.98 µM [inhibitor, partial curve]
O=C(NCc1ccc2c(c1)OCO2)C1CCN(Cc2cnn(-c3ccccc3)c2-n2cccc2)CC1 22.4 µM [fluorescent, side channel, single point]
COc1ccc(C(=O)Nc2ccccc2C(=O)N/N=C/c2ccc(O)c(OC)c2)cc1 8.91 µM [quencher, side channel, partial curve]
COc1c(F)c(F)c(C(=O)Nc2ccc(NC(=O)Cc3ccccc3)cc2)c(F)c1F 28.2 µM [fluorescent, side channel, single point]
COC(=O)/C=C1\SC(=NC(=O)c2cccc([N+](=O)[O-])c2)NC1=O 39.8 µM [quencher, side channel, single point]
COc1ccc2oc(C(=O)c3ccccc3)c(NC(=O)CN3CCN(C)CC3)c2c1 2.82 µM [fluorescent, side channel, full curve, poor fit]
Cc1cc(C)cc(NC(=S)N(Cc2cccc(Br)c2)CC2CCC(C(=O)O)CC2)c1 (configuration not stated) 28.2 µM [quencher, side channel, single point]
Clc1ccc(Cn2nnc(-c3ccc(CN4CCOCC4)cc3)n2)cc1 3.16 µM [inhibitor, single point]
CCOC(=O)/C(C#N)=C/c1c(N2CCN(c3ccc(OC)cc3)CC2)nc2c(C)cccn2c1=O 2.51 µM [inhibitor, full curve]
O=C(CCS(=O)(=O)c1ccccc1)Nc1ccccc1-c1nc2ccccc2s1 7.94 µM [fluorescent, side channel, single point]
Cc1ccc(NC(=O)Nc2nc(-c3ccc(C)s3)cs2)cc1 6.31 µM [quencher, side channel, partial curve]
COc1ccc(NC(=O)c2ccc(COc3ccccc3Br)o2)cc1OC 35.5 µM [quencher, side channel, single point]
COc1ccc(C(C(=O)NC2CCCCC2)N(C(=O)c2cccs2)c2ccc3c(c2)OCO3)cc1 (configuration not stated) 20 µM [fluorescent, side channel, single point]
O=C(N=Nc1c(O)[nH]c2ccc(Br)cc12)c1cc(-c2cccs2)nc2ccccc12 3.98 µM [quencher, side channel, full curve]
CN(C)CCn1c(=O)n(Cc2ccco2)c(=O)c2c3c(sc21)CCCCC3 3.16 µM [inhibitor, partial curve]
Cc1cc(Cl)ccc1Oc1ccccc1C(=O)CC#N 31.6 µM [quencher, side channel, single point]
CN(c1ccccc1)S(=O)(=O)c1nnc(NC(=O)C2CCCCC2)s1 25.1 µM [fluorescent, side channel, single point]
COc1cc(NC(=O)CCN2CCN(Cc3ccccc3)CC2)cc(OC)c1 39.8 µM [inhibitor, single point]
N#Cc1c(NC(=O)c2ccccc2Cl)n(Cc2ccccc2)c2nc3ccccc3nc12 10 µM [quencher, side channel, partial curve]
COc1cccc(C(=O)NC2CCCc3ccccc32)c1 (configuration not stated) 1.26 µM [inhibitor, full curve]
CCC(OC(=O)CN1C(=O)c2ccccc2C1=O)C(=O)NC1CCCC1 (configuration not stated) 15.8 µM [inhibitor, single point]
CCOc1ccc(-n2c(=O)c3c(C)c(C)sc3n(CC(=O)NCc3ccco3)c2=O)cc1 25.1 µM [fluorescent, side channel, single point]

Potency, inactive:
CCc1ccc(-c2cc(C(=O)N/N=C/c3ccccn3)[nH]n2)cc1
COc1ccc(OC)c(CC(NC(C)=O)C(=O)NC2CCN(c3cc(C)nc4ncnn34)CC2)c1 (configuration not stated)
CCCc1nnc(NC(=O)CN2CCN(C)CC2)s1
OC(c1nc2ccccc2[nH]1)C(O)c1nc2ccccc2[nH]1 (configuration not stated)
NCCc1cnc[nH]1
C#CC(C)OC(=O)Nc1cccc(Cl)c1 (configuration not stated)
Oc1ccc(/C=N/N=C/c2ccc(O)c(O)c2)cc1O
